Experimental data reported in US20230235301A1, “Compounds and Methods for Treating, Ameliorating, or Preventing Herpes Ocular Keratitis” (THE TRUSTEES OF THE UNIVERSITY OF PENNSYLVANIA, priority 2020, published 2023).
“And” between values parts separate entries of the source, which are not always exact repeats. Identical values can stand only once. At least one compound was matched to its structure with a doubt left. Some entries share one result that the patent states for a list of compounds. Positions of bridges follow the written chain, without caps; N, C: chain ends. Non-standard residues stand in square brackets, D forms with d. Residues, ends and D or L forms follow the SMILES beside them. R8 = C=CCCCCCC[C@@](C)(N)C(=O)O; S5 = C=CCCC[C@](C)(N)C(=O)O

Biological target: HSV-1 UL30 DNA Polymerase and UL42 Processivity Factor (Human herpesvirus 1, UniProt P10226)
Test: In vitro processive DNA synthesis assay (ELISA-based Rapid Plate Assay)
Type: biochemical
Conditions: read-out: IC50, µM* (HSV1 UL30+UL42); inhibition of HSV-1 processive DNA synthesis in vitro by UL30 and UL42
Experimental: The assay was performed by the enzyme-linked immunosorbent assay (ELISA)-based Rapid Plate Assay (J. Virol. Methods 2000, 88:219-225; Methods Mol. Biol. 2005, 292:481-492; J. Med. Chem. 2008, 51:6563-6570), using in vitro translated viral DNA polymerase and processivity factor.
Briefly, the assay comprised a 100-nucleotide single-stranded DNA template that has biotin covalently linked to the 5′ end. The biotin-labeled oligonucleotide template was immobilized onto streptavidin, which was coated onto each well of a micro-titer plate. An oligonucleotide primer (15mer) was annealed to the 3′ end of the biotin-labeled DNA template. HSV-1 UL-30 and HSV-1 UL-42 (either in vitro translated or purified) were added and incubated with serial dilutions of the stapled peptides. DNA synthesis was measured by direct incorporation of the 4 dNTPs as well as the signal nucleotide, digoxigenin-dUTP (1:5, dig-dUTP:dTTP). A peroxidase-conjugated anti-digoxigenin antibody that recognizes the newly synthesized DNA generated a colorimetric reaction that was quantified with a plate reader at 405 nm.
In certain non-limiting embodiments, the shown staples (or tethers), which provide rigidity, had linked-spacing of one full turn (i,i+4) or two full turns (i,i+7) of the helix to stay in helical register (3.6 amino acids/turn). In other embodiments, the staple was on the solvation side of the helix. Residues on the opposite side contact the PF target protein UL42. These UL42 residues are D63, R64 and K289 (FIGS. 13A-13C). Hydrogen bonds between residues of UL42 and C-Pol are shown as dotted lines. The IC50 values recited herein were quantitated using the assay described in U.S. Pat. No. 6,204,028, which is incorporated herein in its entirety by reference (FIG. 14).

Structure (SMILES)	IC50
CSCC[C@H](NC(=O)[C@H](CCCNC(=N)N)NC(=O)[C@H](CCCNC(=N)N)NC(=O)[C@@H](NC(=O)[C@H](CCC(=O)O)NC(C)=O)[C@@H](C)O)C(=O)N[C@@H](CC(C)C)C(=O)N[C@@H](Cc1c[nH]cn1)C(=O)N[C@@]1(C)CCCC=CCCC[C@@](C)(C(=O)N[C@@H](CC(C)C)C(=O)N[C@@H](C)C(=O)O)NC(=O)[C@H](CC(=O)O)NC(=O)[C@H](Cc2ccccc2)NC(=O)[C@H](C)NC1=O [S-pep8, Ac-ETRRMLHXAFDXLA] (Ac-ETRRMLH[S5]AFD[S5]LA-OH; staple 8-12; C-terminus assumed)	20.7 µM
CSCC[C@H](NC(=O)[C@H](CCCNC(=N)N)NC(=O)[C@H](CCCNC(=N)N)NC(C)=O)C(=O)N[C@@]1(C)CCCC=CCCCCCC[C@](C)(C(=O)N[C@@H](C)C(=O)O)NC(=O)[C@H]([C@@H](C)O)NC(=O)[C@H](CC(=O)O)NC(=O)[C@H](Cc2ccccc2)NC(=O)[C@H](C)NC(=O)[C@H](CCCNC(=N)N)NC(=O)[C@H](Cc2c[nH]cn2)NC1=O [S-pep6, Ac-RRMXHRAFDTXA] (Ac-RRM[S5]HRAFDT[R8]A-OH; staple 4-11; C-terminus assumed)	> 200 µM
CC(=O)N[C@H](C(=O)N[C@H](C(=O)N[C@@H](CCCNC(=N)N)C(=O)N[C@@H](CCCNC(=N)N)C(=O)N[C@@]1(C)CCCC=CCCC[C@@](C)(C(=O)N[C@@H](Cc2ccccc2)C(=O)N[C@@H](CC(=O)O)C(=O)N[C@H](C(=O)N[C@@H](CC(C)C)C(=O)N[C@@H](C)C(=O)O)[C@@H](C)O)NC(=O)[C@H](CCCNC(=N)N)NC(=O)[C@H](Cc2c[nH]cn2)NC(=O)[C@H](CC(C)C)NC1=O)[C@@H](C)O)C(C)C [S-pep7A, Ac-VTRRXLHRXFDTLA] (Ac-VTRR[S5]LHR[S5]FDTLA-OH; staple 5-9; C-terminus assumed)	~1 µM and 1.7 µM
CC(=O)N[C@@H](CCCNC(=N)N)C(=O)N[C@H](C(=O)N[C@@H](CCCNC(=N)N)C(=O)N[C@@H](CCCNC(=N)N)C(=O)N[C@@]1(C)CCCC=CCCC[C@@](C)(C(=O)N[C@@H](Cc2ccccc2)C(=O)N[C@@H](CC(=O)O)C(=O)N[C@H](C(=O)N[C@@H](CC(C)C)C(=O)N[C@@H](C)C(=O)O)[C@@H](C)O)NC(=O)[C@H](CCCNC(=N)N)NC(=O)[C@H](Cc2c[nH]cn2)NC(=O)[C@H](CC(C)C)NC1=O)[C@@H](C)O [S-pep7C, Ac-RTRRXLHRXFDTLA] (Ac-RTRR[S5]LHR[S5]FDTLA-OH; staple 5-9; C-terminus assumed)	1.7 µM
CC(=O)N[C@@H](C)C(=O)N[C@@H](CCC(=O)O)C(=O)N[C@@]1(C)CCCC=CCCC[C@@](C)(C(=O)N[C@@H](CC(C)C)C(=O)N[C@@H](Cc2c[nH]cn2)C(=O)N[C@@H](CCCNC(=N)N)C(=O)N[C@@H](C)C(=O)N[C@@H](Cc2ccccc2)C(=O)N[C@@H](CC(=O)O)C(=O)N[C@H](C(=O)N[C@@H](CC(C)C)C(=O)N[C@@H](C)C(=O)O)[C@@H](C)O)NC(=O)[C@H](CCCNC(=N)N)NC(=O)[C@H](CCCNC(=N)N)NC(=O)[C@H]([C@@H](C)O)NC1=O [S-pep3, Ac-AEXTRRXLHRAFDTLA] (Ac-AE[S5]TRR[S5]LHRAFDTLA-OH; staple 3-7; C-terminus assumed)	12.7 µM
CC(=O)N[C@@H](CCC(=O)O)C(=O)N[C@H](C(=O)N[C@@H](CCCNC(=N)N)C(=O)N[C@@H](CCCNC(=N)N)C(=O)N[C@@]1(C)CCCC=CCCC[C@@](C)(C(=O)N[C@@H](Cc2ccccc2)C(=O)N[C@@H](CC(=O)O)C(=O)N[C@H](C(=O)N[C@@H](CC(C)C)C(=O)N[C@@H](C)C(=O)O)[C@@H](C)O)NC(=O)[C@H](CCCNC(=N)N)NC(=O)[C@H](Cc2c[nH]cn2)NC(=O)[C@H](CC(C)C)NC1=O)[C@@H](C)O [S-pep7, Ac-ETRRXLHRXFDTLA] (Ac-ETRR[S5]LHR[S5]FDTLA-OH; staple 5-9; C-terminus assumed)	5.5 µM
CC(=O)N[C@@]1(C)CCCC=CCCC[C@@](C)(C(=O)N[C@@H](CC(C)C)C(=O)N[C@@H](Cc2c[nH]cn2)C(=O)N[C@@H](CCCNC(=N)N)C(=O)N[C@@H](C)C(=O)N[C@@H](Cc2ccccc2)C(=O)N[C@@H](CC(=O)O)C(=O)N[C@H](C(=O)N[C@@H](CC(C)C)C(=O)N[C@@H](C)C(=O)O)[C@@H](C)O)NC(=O)[C@H](CCCNC(=N)N)NC(=O)[C@H](CCCNC(=N)N)NC(=O)[C@H]([C@@H](C)O)NC1=O [S-pep1, Ac-XTRRXLHRAFDTLA] (Ac-[S5]TRR[S5]LHRAFDTLA-OH; staple 1-5; C-terminus assumed)	12 µM
CC(=O)N[C@@H](CCCNC(=N)N)C(=O)N[C@@H](CCCNC(=N)N)C(=O)N[C@@]1(C)CCCC=CCCCCCC[C@](C)(C(=O)N[C@@H](CC(C)C)C(=O)N[C@@H](C)C(=O)O)NC(=O)[C@H](CC(=O)O)NC(=O)[C@H](Cc2ccccc2)NC(=O)[C@H](C)NC(=O)[C@H](CCCNC(=N)N)NC(=O)[C@H](Cc2c[nH]cn2)NC(=O)[C@H](CC(C)C)NC1=O [S-pep4, Ac-RRXLHRAFDZLA] (Ac-RR[S5]LHRAFD[R8]LA-OH; staple 3-10; C-terminus assumed)	32.8 µM
CC(=O)N[C@H](C(=O)N[C@H](C(=O)N[C@H](C(=O)N[C@@H](CCCNC(=N)N)C(=O)N[C@@H](CCCNC(=N)N)C(=O)N[C@@]1(C)CCCC=CCCC[C@@](C)(C(=O)N[C@@H](Cc2ccccc2)C(=O)N[C@@H](CC(=O)O)C(=O)N[C@H](C(=O)N[C@@H](CC(C)C)C(=O)N[C@@H](C)C(=O)O)[C@@H](C)O)NC(=O)[C@H](CCCNC(=N)N)NC(=O)[C@H](Cc2c[nH]cn2)NC(=O)[C@H](CC(C)C)NC1=O)[C@@H](C)O)C(C)C)C(C)C [S-pep7B, Ac-VVTRRXLHRXFDTLA] (Ac-VVTRR[S5]LHR[S5]FDTLA-OH; staple 6-10; C-terminus assumed)	1 µM and ~1 µM
CC(=O)N[C@@H](CCCNC(=N)N)C(=O)N[C@@H](CCCNC(=N)N)C(=O)N[C@H](C(=O)N[C@@H](CCCNC(=N)N)C(=O)N[C@@H](CCCNC(=N)N)C(=O)N[C@@]1(C)CCCC=CCCC[C@@](C)(C(=O)N[C@@H](Cc2ccccc2)C(=O)N[C@@H](CC(=O)O)C(=O)N[C@H](C(=O)N[C@@H](CC(C)C)C(=O)N[C@@H](C)C(=O)O)[C@@H](C)O)NC(=O)[C@H](CCCNC(=N)N)NC(=O)[C@H](Cc2c[nH]cn2)NC(=O)[C@H](CC(C)C)NC1=O)[C@@H](C)O [S-pep7D, Ac-RRTRRXLHRXFDTLA] (Ac-RRTRR[S5]LHR[S5]FDTLA-OH; staple 6-10; C-terminus assumed)	2 µM

Biological target: polymerase and processivity factor of VV (E9, A20 and D4) (Vaccinia virus, UniProt P04303+P06856+P68710)
Test: not given
Type: biochemical
Conditions: read-out: IC50, in vitro DNA synthesis by vaccinia virus polymerase and processivity factor; recombinantly expressed VV proteins

Structure (SMILES)	IC50
CC(=O)N[C@H](C(=O)N[C@H](C(=O)N[C@H](C(=O)N[C@@H](CCCNC(=N)N)C(=O)N[C@@H](CCCNC(=N)N)C(=O)N[C@@]1(C)CCCC=CCCC[C@@](C)(C(=O)N[C@@H](Cc2ccccc2)C(=O)N[C@@H](CC(=O)O)C(=O)N[C@H](C(=O)N[C@@H](CC(C)C)C(=O)N[C@@H](C)C(=O)O)[C@@H](C)O)NC(=O)[C@H](CCCNC(=N)N)NC(=O)[C@H](Cc2c[nH]cn2)NC(=O)[C@H](CC(C)C)NC1=O)[C@@H](C)O)C(C)C)C(C)C [S-pep7B, Ac-VVTRRXLHRXFDTLA] (Ac-VVTRR[S5]LHR[S5]FDTLA-OH; staple 6-10; C-terminus assumed)	> 50 µM
